B1: LINE1-mini (parent)
chain: GGCAGAGCUCAACACAGCGUGGCAAAGUGGCUGUGGCUAGACUGCC

The source gives no read counts; variants with many changes may rest on few reads.

This data set covers variants of B1. As to the kind of experiment: self-cleavage, relative activity (ratio to wild type); higher = more cleavage; in vitro, sequencing; the parent is a self-cleaving ribozyme.
For the variant GGCAGAGCUCAACACGCCGUGUCAAAGUGGCUGUGUCUAGAUUGCC [A16G G17C G22U G36U C42U], the self-cleavage worked out at 0.
With GGCAGAGCUCAACACGGUGUGGCAAAGUAGCUUUGGCUAGACUGCC [A16G C18U G29A G33U], the self-cleavage stood at 0.1.
The same measure for GGCAGAGCUCAACACGGAGUGGCAAAUUGGCUUUGGCUAGAGUGUC [A16G C18A G27U G33U C42G C45U]: 0.01; for GGCAGAGCUCAACACCGCGUGGCAAAGUGGCUGAGGCUAGAGUGCC [A16C U34A C42G]: 0.03; for GGCAGAGCUCAACACGGGGUGGCAACGUGGCUGUCGCUAGACUGAC [A16G C18G A26C G35C C45A]: 0.02.
The same measure for GGCAGAGCUCAACACGACGUGGCUAAGUGGCUGUGGCUAGACUGCC [A16G G17A A24U]: 0.04; for GGCAGAGCUCAACACCGCGUGGCAAAGUGGCUGCGGAUAGACUGCC [A16C U34C C37A]: 0.
The same measure for GGCAGAGCUCAACACGGAAUGGCUAAGUGGCUGUGGCUAGACUGCC [A16G C18A G19A A24U]: 0.12; for GGCAGAGCUCAACACGUCGUGGCAAAGUGGCUGUGGCUGGACUGCC [A16G G17U A39G]: 0.07; for GGCAGAGCUCAACACGGCGUGGCAAAGUGGCUGUGGAAAGACUGCC [A16G C37A U38A]: 0.02.
In the case of GGCAGAGCUCAACACCGCGUGGCAAAGUGGCUGUCUCUAGACUGCC [A16C G35C G36U], the self-cleavage was found to be 0.04.
As to GGCAGAGCUCAACACGGCGUGGCAAAGUGGAUGUGGAUAGACUGCC [A16G C31A C37A], the self-cleavage turned out to be 0.1.
The same measure for GGCAGAGCUCAACACGGCGUGGCAAAGUGGUUGUGGCUAGACUACC [A16G C31U G44A]: 0.03.
As for GGCAGAGCUCAACACCGCGUGGCAAAGUGGCUGUGGCAAGAUUGCC [A16C U38A C42U], the figure is 0.01.
The same measure for GGCAGAGCUCAACACGCCGUGGCAAAGUGGCGGUGGCUAGACUGCC [A16G G17C U32G]: 0.14.
For GGCAGAGCUCAACACGGCGUGGCAUAGCGGCUGUGGCUAGACUGCC [A16G A25U U28C], the self-cleavage was 0.33.
The same measure for GGCAGAGCUCAACACGUCGUGGCAAAGGGGCUGUGGCUAGACUGCC [A16G G17U U28G]: 0.4; for GGCAGAGCUCAACACGGCGUGGCAAAGUGGAUGUGACUAGACUGCC [A16G C31A G36A]: 0.03; for GGCAGAGCUCAACACCGCGCGGCAAAGUGGCAGUGGCUAGACUGCC [A16C U20C U32A]: 0.02.
As for GGCAGAGCUCAACACGGCGUGGCAAGGUGGCGGUGACUUGAGUGCC [A16G A26G U32G G36A A39U C42G], the figure is 0.04.
As for GGCAGAGCUCAACACGGCGUGGCUAAGAGGCUGUGGCUAGACUGCC [A16G A24U U28A], the figure is 0.03; as for GGCAGAGCUCAACACGGCCUGGCUAAGUGGCUGUGGCUAGACUGCC [A16G G19C A24U], 0.04; as for GGCAGAGCUCAACACGGCGUGGCAAGGUGGCUGUGACUAGACUGCU [A16G A26G G36A C46U], 0.03.
As for GGCAGAGCUCAACACGCAGUGGCAAAGUGGCUGUGGCUAGCCUGCC [A16G G17C C18A A41C], the self-cleavage came to 0.02.
Turning to GGCAGAGCUCAACACGGCUUGUCAAAGUGACUGUGCCUAAACUGCC [A16G G19U G22U G30A G36C G40A], the self-cleavage was determined as 0.13.
The same measure for GGCAGAGCUCAACACGGCGUGGCAAUGCGGGUGUGGCUAGAUUGCC [A16G A26U U28C C31G C42U]: 0.03.
As for GGCAGAGCUCAACACCGCGUGGCAAAGUGGCCGUGGCGAGACUGCC [A16C U32C U38G], the figure is 0.01; as for GGCAGAGCUCAACACCGCGUGGCAAAGUGGCUGUGGCUAGACUUAC [A16C G44U C45A], 0.01.
As for GGCAGAGCUCAACACGGCGUGGCAAAGUGGCUGUGGCUAGGCUGGC [A16G A41G C45G], the figure is 0.01.
As to GGCAGAGCUCAACACGGCGUGGUAAAGUGGCUGUGGCUAGGCCGCC [A16G C23U A41G U43C], the self-cleavage was 0.01.
For the variant GGCAGAGCUCAACACGUCGAGGCAAAGUGGCUGGGGCUAGACUGCC [A16G G17U U20A U34G], the self-cleavage was 0.07.
As for GGCAGAGCUCAACACGGCGUGGCAAUGUGACUGCGUCUAGACUGCC [A16G A26U G30A U34C G36U], the figure is 0.03; as for GGCAGAGCUCAACACGCCGAGGCAAAGUGGCUGUGGCUAGACUGAC [A16G G17C U20A C45A], 0.13; as for GGCAGAGCUCAACACGGCGUGGCAAAGUGGUUGUGGCUUUACUGCC [A16G C31U A39U G40U], 0.01.
As for GGCAGAGCUCAACACGGCGUGGCAAAGUGGCUGUGGCUAGUCUGAC [A16G A41U C45A], the figure is 0.05.
As for GGCAGAGCUCAACACCGCGUGGCAAAGUGGCUGUGUCUAGACCGCC [A16C G36U U43C], the figure is 0.04; as for GGCAGAGCUCAACACGCCGUGGCGAAGUGGAUGUGGCUAGACUGCC [A16G G17C A24G C31A], 0.26.
As to GGCAGAGCUCAACACGGUGUGGCAAAGUGGCUCUGGAGAGACUGCC [A16G C18U G33C C37A U38G], the self-cleavage came to 0.03.
As for GGCAGAGCUCAACACGCCGUGACAAAGUUGCUGUGGCUCGACUGCC [A16G G17C G22A G29U A39C], the figure is 0.06.
With GGCAGAGCUCAACACCGCGUGGCAAAGUGGCUGUGACUAGCCUGCC [A16C G36A A41C], the self-cleavage was 0.
As for GGCAGAGCUCAACACGGCGUGGUAAAGUGGCUGUGGCAAGACUUCC [A16G C23U U38A G44U], the figure is 0.01; as for GGCAGAGCUCAACACGGGGUGGCAAAGUGGCUGUGGCUAGAGUGCC [A16G C18G C42G], 0.14.
As for GGCAGAGCUCAACACGGCCUGGCAAAGUCGCUGUGGCUAGACUGCC [A16G G19C G29C], the figure is 0.04.
As for GGCAGAGCUCAACACCGCGUGGCAAAGUGGCUGUGGCCAAACUGCA [A16C U38C G40A C46A], the figure is 0.04; as for GGCAGAGCUCAACACCGCGCGGCAAAGUGGCUGUGGCUCGACUGAC [A16C U20C A39C C45A], 0.02.
In the case of GGCAGAGCUCAACACGCCGUGGCAAAGUGGCUCUGGCUAGACUGCC [A16G G17C G33C], the self-cleavage worked out at 0.01.
As for GGCAGAGCUCAACACCGCGCCGCAAAGUGGCUGUGGCUAGACUGCC [A16C U20C G21C], the figure is 0.08; as for GGCAGAGCUCAACACCGCGUGGCAAAGCGGCUGUGGCUUGACUGCC [A16C U28C A39U], 0.03; as for GGCAGAGCUCAACACCGCGGGGCAAACUGGAUGUGGCUACAGUGCC [A16C U20G G27C C31A G40C C42G], 0.01.
The same measure for GGCAGAGCUCAACACCGCGUGGCAAAGUGGCUGUGGCUAAACUACC [A16C G40A G44A]: 0.09.
The same measure for GGCAGAGCUCAACACGGCAUGGCCAAGUGGCUGUGGCUAGACUGCU [A16G G19A A24C C46U]: 0.02.
As for GGCAGAGCUCAACACCGCGUGGCAAAGUGGCUGUCGCUAGACUGGC [A16C G35C C45G], the self-cleavage is 0.03.
As for GGCAGAGCUCAACACGGCGUGGCAAGGUGGCUGUGGCUAUACUGCC [A16G A26G G40U], the self-cleavage was found to be 0.
The same measure for GGCAGAGCUCAACACGCCGUGGCAAAGUGGCUGUGACUAGACUGCC [A16G G17C G36A]: 0.25; for GGCAGAGCUCAACACGGCGUGGCAAAGUGGUUGUGGCUCGACUGCA [A16G C31U A39C C46A]: 0; for GGCAGAGCUCAACACGGCGUGGAAAAGUGGCUAUGGCUACACUGCC [A16G C23A G33A G40C]: 0.02.

The values above are taken from the RNAGym collection of RNA variant scans (doi:10.7554/elife.90254).
